Laboratory results taken from the supplement of paper PMC12217912.
This is one part of the list. Sequences were assembled here from the parent chain. Values near 0.05 are background.

B1: TEV protease; numbered along this chain (parent)
chain: MGESLFKGPRDYNPISSSICHLTNESDGHTTSLYGIGFGPFIITNKHLFRRNNGTLVVQSLHGVFKVKDTTTLQQHLVDGRDMIIIRMPKDFPPFPQKLKFREPQREERICLVTTNFQTKSMSSMVSDTSCTFPSGDGIFWKHWIQTKDGQCGSPLVSTRDGFIVGIHSASNFTNTNNYFTSVPKNFMELLTNQEAQQWVSGWRLNADSVLWGGHKVFMVKPEEPFQPVKEATQL

Variants of: B1
Experiment: raw area under fraction-flipped curve 0-4 h after induction (AUC4h, not background-subtracted), DNA-recorder readout of cleavage of the substrate (dimensionless); higher = more cleavage of the substrate by the protease variant
Conditions: temperature: 34 °C; time window: 0-4 h after rhamnose induction
Procedure: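 In vivo DNA recorder in E. coli TOP10(DE3) ΔrhaA at 34 °C. Each TEVp single-site mutant (parent TEVp 0) is paired with a single-site variant of the 7-mer TEVs (canonical ENLYFQ|S). The substrate sits between flexible linkers in a Bxb1-sfGFP-TEVs-SsrA fusion, so cleavage stabilises Bxb1 and speeds flipping of a recombination array, read by NGS. The value is the raw area under the fraction-flipped curve over 0-4 h after rhamnose induction (AUC4h), with ≥20 reads per time point. It is not background-subtracted; inactive controls average about 0.047.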
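Note: Bxb1 expression induced with 0.2% (w/v) L-rhamnose at OD600 near 0.5, cultures sampled hourly, flipped fraction per protease–substrate barcode pair counted by paired-end Illumina sequencing.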

| Variant | area with substrate ENLYFQC | area with substrate ENLYFQD | area with substrate ENLYFQE | area with substrate ENLYFQG | area with substrate ENLYFQH | area with substrate ENLYFQI | area with substrate ENLYFQL | area with substrate ENLYFQM | area with substrate ENLYFQN | area with substrate ENLYFQP | area with substrate ENLYFQR | area with substrate ENLYFQS | area with substrate ENLYFQY | area with substrate ENLYFQK | area with substrate ENLYFQQ | area with substrate ENLYFQT | area with substrate ENLYFQV | area with substrate ENLYFQF | area with substrate ENLYFQW |
| --- | --- | --- | --- | --- | --- | --- | --- | --- | --- | --- | --- | --- | --- | --- | --- | --- | --- | --- | --- |
| T129V | 0.103 | 0.0658 | 0.0686 | 0.0896 | 0.0814 | 0.0779 | 0.04 | 0.085 | 0.0615 | 0.0584 | 0.0551 | 0.0878 | 0.0951 |  |  |  |  |  |  |
| T129F | 0.0996 |  | 0.0666 | 0.0738 |  |  | 0.0664 | 0.0756 | 0.0777 | 0.0663 | 0.0586 | 0.0832 |  | 0.0603 | 0.0843 | 0.0821 | 0.0039 |  |  |
| L99P | 0.0846 | 0.0657 |  | 0.0927 | 0.0857 | 0.0656 |  | 0.006 | 0.0729 | 0.0556 | 0.0561 | 0.0981 |  |  |  | 0.0657 |  | 0.0908 | 0.0431 |
| N45R | 0.0637 | 0.0496 |  | 0.0622 | 0.0655 |  | 0.0945 | 0.0573 | 0.0566 | 0.0727 | 0.0575 | 0.0599 | 0.0417 | 0.0561 | 0.0561 | 0.0548 | 0.0643 | 0.0397 |  |
| G39H | 0.045 | 0.0481 |  | 0.049 |  | 0.0394 | 0.0371 | 0.0443 |  | 0.032 | 0.0239 | 0.0454 | 0.0442 | 0.0423 |  |  | 0.0545 |  | 0.0466 |
| V58F | 0.0868 | 0.0513 | 0.0713 |  | 0.0604 | 0.0453 |  |  | 0.0893 | 0.05 | 0.0505 | 0.091 |  |  |  |  |  |  | 0.0496 |
| I139P | 0.129 | 0.0479 |  |  | 0.0936 |  |  |  |  | 0.0665 |  | 0.115 | 0.0637 | 0.0374 | 0.0623 | 0.0581 |  |  | 0.0639 |
| I139W | 0.109 | 0.0842 |  |  | 0.083 | 0.0802 | 0.0537 |  | 0.072 | 0.0543 | 0.0728 | 0.0931 | 0.066 |  |  |  | 0.062 |  | 0.0676 |
| D161S | 0.086 |  |  |  | 0.0523 | 0.0711 | 0.0561 | 0.0728 | 0.05 |  | 0.0597 | 0.0823 | 0.0634 | 0.0658 |  |  | 0.0489 |  | 0.0544 |
| D161R | 0.0885 | 0.0555 |  | 0.0612 | 0.0554 | 0.0651 | 0.0459 | 0.0803 | 0.0571 | 0.0627 | 0.0524 | 0.0657 | 0.0673 | 0.064 |  | 0.0645 |  |  | 0.0507 |
| L156C | 0.124 |  |  | 0.122 |  | 0.0604 | 0.051 | 0.0875 | 0.0858 | 0.0493 | 0.0379 | 0.105 | 0.082 | 0.0599 | 0.0946 | 0.0661 |  |  | 0.0645 |
| P93A | 0.12 |  |  |  |  |  | 0.0515 |  | 0.0792 | 0.0512 | 0.0516 | 0.105 |  | 0.0576 |  | 0.0579 | 0.0567 | 0.0795 |  |
| F38N | 0.108 | 0.0545 |  | 0.108 | 0.0653 | 0.0522 | 0.054 |  | 0.0646 | 0.0603 | 0.0493 | 0.0803 | 0.0498 | 0.0545 |  | 0.0623 | 0.0329 |  | 0.0742 |
| W141C | 0.0612 |  |  |  |  | 0.0725 | 0.055 | 0.0579 |  | 0.0613 | 0.063 | 0.0669 | 0.0565 | 0.0659 |  | 0.0912 | 0.0622 |  | 0.0557 |
| F133C | 0.0905 | 0.0671 |  |  | 0.0812 | 0.0613 | 0.0474 |  |  |  | 0.0602 | 0.104 |  |  |  |  |  |  |  |
| S60M | 0.11 | 0.0666 |  | 0.0975 | 0.0776 | 0.0559 | 0.0634 | 0.0614 | 0.0893 | 0.068 | 0.0625 | 0.104 |  | 0.0611 |  | 0.0615 | 0.054 |  | 0.0778 |
| S60P | 0.0773 | 0.0433 |  | 0.0814 | 0.0532 | 0.0437 | 0.0426 | 0.0529 | 0.0417 |  | 0.0482 | 0.0511 | 0.0669 |  |  | 0.0406 |  |  | 0.0286 |
| I110S | 0.0382 | 0.0552 | 0.0597 | 0.0528 |  |  | 0.0536 | 0.07 | 0.0549 |  | 0.0531 | 0.0632 | 0.0513 | 0.052 |  | 0.0567 | 0.0512 | 0.0431 | 0.0562 |
| S158A | 0.117 | 0.0698 |  |  |  | 0.0415 |  |  |  |  | 0.0669 | 0.0968 |  |  | 0.096 | 0.064 | 0.033 |  | 0.0653 |
| S158I | 0.0581 | 0.0308 |  |  |  |  | 0.0565 | 0.0613 | 0.0542 |  | 0.0467 | 0.05 | 0.0183 |  |  | 0.0046 |  |  |  |
| I164M | 0.0855 | 0.0728 |  | 0.0859 | 0.0531 | 0.0625 | 0.0498 | 0.0626 | 0.0649 | 0.0534 | 0.069 | 0.0784 | 0.0615 | 0.056 | 0.0743 | 0.061 | 0.0589 | 0.0658 | 0.0547 |
| I164N | 0.0366 | 0.0489 | 0.0688 |  | 0.0591 | 0.093 | 0.0536 |  |  | 0.0508 | 0.0506 | 0.0529 | 0.0504 | 0.0583 |  | 0.0568 |  |  | 0.0554 |
| M122N | 0.117 | 0.0772 | 0.0499 |  |  | 0.0707 | 0.075 |  | 0.0817 |  |  | 0.106 | 0.0741 | 0.0584 |  | 0.0599 | 0.08 | 0.0826 | 0.0696 |
| M122A | 0.12 |  |  | 0.106 |  | 0.0546 |  | 0.0833 | 0.0822 |  |  | 0.11 | 0.0902 | 0.0727 |  | 0.0583 |  |  | 0.0619 |
| R160S | 0.11 |  |  |  |  |  |  | 0.108 |  | 0.0539 |  | 0.113 |  |  |  |  |  |  |  |
| L77E | 0.0678 |  |  | 0.0658 |  |  |  | 0.0552 | 0.063 | 0.0513 | 0.0474 | 0.0677 | 0.0529 | 0.0663 |  |  | 0.047 |  | 0.0717 |
| L77G | 0.0499 |  |  | 0.0658 | 0.0698 | 0.0651 |  | 0.0597 | 0.0559 | 0.0579 |  | 0.0701 |  |  |  |  | 0.0234 |  | 0.0503 |
| D91Q | 0.111 |  |  |  |  | 0.0707 | 0.0429 |  |  |  |  | 0.103 |  | 0.059 | 0.0627 |  |  | 0.0761 |  |
| C111W | 0.0963 |  | 0.102 | 0.089 |  | 0.0655 |  | 0.0756 | 0.0826 |  | 0.0632 | 0.0887 |  | 0.087 |  |  |  | 0.0727 | 0.0597 |
